Out of some 110,000 compounds screened, about 230 (0.21%) showed an effect of 50% or more. This is one part of the list.
Target: DPAP1 (Plasmodium falciparum, UniProt Q8IIJ9)
Assay: primary screen, percent inhibition; read by cleavage of a fluorogenic dipeptide substrate; higher = more effect of the substance
Parameters: species or system P. falciparum D10 trophozoite lysates; single well
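Also: 30 min substrate incubation versus DMSO and 10 µM JCP410 controls.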

DPAP1, sequence (Q8IIJ9 whole entry, looked up): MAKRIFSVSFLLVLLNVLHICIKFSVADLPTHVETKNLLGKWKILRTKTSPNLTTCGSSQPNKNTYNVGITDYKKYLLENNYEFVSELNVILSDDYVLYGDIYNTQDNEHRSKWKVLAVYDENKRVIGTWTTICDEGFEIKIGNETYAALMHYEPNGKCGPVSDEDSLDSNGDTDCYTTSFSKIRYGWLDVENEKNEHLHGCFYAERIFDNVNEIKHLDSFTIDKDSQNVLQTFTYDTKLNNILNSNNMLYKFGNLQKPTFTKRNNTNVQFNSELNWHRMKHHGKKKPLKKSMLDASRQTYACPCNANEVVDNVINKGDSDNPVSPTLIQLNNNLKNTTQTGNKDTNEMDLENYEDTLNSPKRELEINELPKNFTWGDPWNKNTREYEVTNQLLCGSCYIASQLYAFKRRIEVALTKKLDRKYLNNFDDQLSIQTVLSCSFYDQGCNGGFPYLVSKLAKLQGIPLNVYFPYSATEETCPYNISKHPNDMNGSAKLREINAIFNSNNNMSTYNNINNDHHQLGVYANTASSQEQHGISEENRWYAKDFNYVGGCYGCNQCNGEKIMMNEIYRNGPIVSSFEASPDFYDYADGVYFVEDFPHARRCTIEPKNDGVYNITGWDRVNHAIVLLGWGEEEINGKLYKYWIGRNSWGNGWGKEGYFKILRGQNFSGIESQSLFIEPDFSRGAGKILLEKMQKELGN

Structure (SMILES)	% Inhibition @ 10 uM
CCn1c(SCC(N)=O)nnc1-c1ccc2c(c1)OCO2	5.32%
CC(=O)NCC1CCC(C(=O)O)CC1 (stereo not shown)	-6.68%
Cc1ccc(S(=O)(=O)Cc2nc(-c3ccc(C(=O)NCc4cccnc4)cc3)oc2C)cc1	0.967%
COc1cccc(/C=C2/C(=N)N3C=CSC3=NC2=O)c1OCCCOc1ccc(C)c(C)c1	0.147%
CC(=O)c1nnn(-c2ccccc2)c1Nc1ccccc1	3.83%
CCOC(=O)C1=C(C)NC(=O)NC1c1ccc(-c2cc(Cl)cc(Cl)c2)o1 (stereo not shown)	5.55%
COc1ccc(C2(CNC(=O)CCC(=O)O)CCOCC2)cc1	-1.69%
c1cnc2ccc(-c3ccc4ncccc4c3)cc2c1	-6.71%
CCOc1ccc(CCNCc2c(C(=O)O)n(Cc3ccc(F)cc3)c3cc(OC)ccc23)cc1	9.74%
Cc1cc(C)c2nc(N3CCCC(C(=O)NCc4cccnc4)C3)sc2c1 (stereo not shown)	1.8%
COc1ccc(N2C(=O)NC(=O)/C(=C\c3cccn3C)C2=O)cc1	2.16%
N#C/C(=C\c1c[nH]c2ccccc12)c1nn(CCO)c(N)c1C#N	-4.24%
COc1ccc(-c2cn3nc(N4CCCC(C(=O)NCCCN5CCOCC5)C4)sc3n2)cc1 (stereo not shown)	-1.41%
CCOC(=O)c1c(-c2ccccc2)oc2ccc(O)cc12	-6.06%
Fc1ccccc1C1C2=C(Nc3ncnn31)c1cc(Cl)ccc1OC2c1cccs1 (stereo not shown)	6.36%
CC(C)(C)Nc1ccc2nonc2c1[N+](=O)[O-]	-0.712%
CC1CCN(c2c(NCC3CCC(C(=O)NCCc4ccc(Cl)cc4)CC3)c(=O)c2=O)CC1 (stereo not shown)	-0.447%
COc1ccc(CNc2nc(-c3cccnc3)nn2C(=O)c2ccccc2Cl)cc1	-1.15%
CCc1ccc(C2C(C#N)=C(N)N(c3c(F)cccc3F)C3=C2C(=O)CCC3)s1 (stereo not shown)	-1.64%
COc1ccc(NC(=O)CN(Cc2ccccc2)S(C)(=O)=O)cc1OC	-1.88%
COc1ccc(CNC(=O)c2cc(-c3ccc4c(c3)OCO4)on2)cc1	-5.09%
COc1ccc(CC(=O)Nc2ccc(Cl)c(C(F)(F)F)c2)cc1	-4.87%
COc1ccc(CNS(=O)(=O)c2csc(C(N)=O)c2)cc1	3.54%
CCOC(=O)c1c(C)oc2ncnc(NCCc3ccc(S(N)(=O)=O)cc3)c12	0.536%
COc1cc(CCC(=O)Nc2c(C(=O)N3CCN(Cc4ccccc4)CC3)oc3ccccc23)on1	-4.68%

Structure (SMILES)	% Inhibition @ 10 uM
CC(C)c1ccccc1NC(=O)CN(c1ccccc1Br)S(C)(=O)=O	2.19%
COc1ccc(S(=O)(=O)N(CC(=O)N2CCN(C)CC2)c2cc(Cl)ccc2OC)cc1OC	0.147%
C=C(C)CN(CC)Cc1cc(Cl)cc(Cl)c1O	2.1%
Cc1nn(-c2ccccc2)c2c1N(CC(=O)NCc1ccccc1)C(=O)CS2	-0.858%
CCOc1ccccc1/C=C1\CCc2ccccc2C1=O	-3.79%
Cc1cccc2c1-c1sc(C(=O)NCc3ccc(F)cc3)cc1CO2	-4.85%
Cc1nn2c(=O)cc(COc3ccc(/C=C4\C(=N)N5N=C(C(C)C)SC5=NC4=O)cc3)nc2s1	4.28%
CC(C)(C)S(=O)(=O)c1ccccn1	3.42%
CCN1CCN(Cc2cc(F)ccc2F)CC1	-4.14%
CCCCNC(=O)CNC(=S)N(Cc1ccccc1F)C1CCCCC1	1.27%
Cc1ccc(NC(=O)CCCN2C(=O)c3ccccc3C2=O)cc1	-3.65%
O=C(O)C1Nc2ccc(Cl)cc2C2C=CCC12 (stereo not shown)	6.66%
Cc1c(Cc2ccccc2)sc(NC(=O)CCC(=O)O)c1C(N)=O	2.13%
c1ccc(CN2CCC(N3CCN(Cc4ccccc4)CC3)CC2)cc1	-1.15%
O=C(COc1ccc(Cl)cc1Cl)NCCNC1=NS(=O)(=O)c2ccccc21	3.47%
O=C(CCCC(=O)c1ccccc1)NC1CCCCCCC1	-1.46%
Cc1ccc2c(c1)-c1c(cnn1CC(=O)NC(C)CCc1ccco1)CO2 (stereo not shown)	-1.36%
COc1ccc(N2CCN(C(=O)CN(c3cc(C)ccc3OC)S(C)(=O)=O)CC2)cc1	-13%
CCCOc1ccc(CNC(=O)CCC(=O)n2ncc3ccc(Cl)cc32)cc1	8.34%
COC(=O)C1=CN(Cc2cccs2)C=C(C(=O)OC)C1c1ccccc1OC(C)C	-1.47%
COCCNC(=O)c1cc(-c2ccc(Cl)cc2)nc2ccccc12	-3.75%
NS(=O)(=O)c1ccc(CCNC(=O)CSc2nc3ccccc3c3nc4ccccc4n23)cc1	6.2%
Cn1cc(/C=C2/SC(=O)N(CC(=O)Nc3ccc4c(c3)OCO4)C2=O)c2ccccc21	-17.9%
O=C1N(c2cccc(C(F)(F)F)c2)C2CS(=O)(=O)CC2N1c1ccccc1Cl (stereo not shown)	-2.98%
Cc1ccc(CNC(=O)CNC(=S)N(CCCN2CCOCC2)Cc2cccs2)cc1	-2.14%

Structure (SMILES)	% Inhibition @ 10 uM
O=C(O)/C=C\C(=O)c1ccccc1	-1.9%
O=c1cc(CSc2nc3ccccc3c3nc4ccccc4n23)nc2ccc(Br)cn12	7.41%
CCCc1n(CC(O)COC2CCCCC2)c2ccccc2[n+]1CC (stereo not shown)	0.147%
Cc1cc2sc(NC(=O)c3cncc(Br)c3)nc2cc1Cl	1.84%
O=C(Nc1ccc2c(c1)OCCO2)c1cccs1	-3.16%
CC(=O)Nc1cc(NC(C)=O)c(C)cc1C	3.14%
CC(=O)c1ccc(N2C(=O)C3C4C=CC(CO)(O4)C3C2=O)cc1 (stereo not shown)	-1.3%
Cc1nn(Cc2ccc(F)cc2)c(C)c1NC(=O)C1CCCC1	1.96%
CCOC(=O)C1=C(C)N=c2s/c(=C\c3ccccn3)c(=O)n2C1c1ccccc1 (stereo not shown)	-2.91%
Nc1nc(Nc2ccc(O)cc2)nc2ccccc12	-0.519%
COc1ccc(NC(=O)c2cccc(OC(F)F)c2)cc1Cl	1.88%
c1cncc(CN2CCc3c([nH]c4ccccc34)C2)c1	-1.98%
Cc1ccc(-c2nnc3s/c(=C\c4ccc(Cl)cc4)c(=O)n23)cc1	-1.33%
Cn1c2c(c3ccccc31)CCc1nonc1-2	-4.68%
CS(=O)(=O)CCC(C(=O)Nc1nccs1)N1Cc2ccccc2C1=O (stereo not shown)	-4.1%
COc1ccc(NC(=O)C(C)N(c2ccccc2)S(C)(=O)=O)cc1OC (stereo not shown)	-13.8%
CCCC(C)c1c(O)n(CC)c(SCc2ccccc2)nc1=O (stereo not shown)	0.0792%
CC(Cc1c[nH]c2ccccc12)NC(=O)c1ccc([N+](=O)[O-])cc1 (stereo not shown)	3.34%
Cc1c(Cc2ccccc2)c(=O)oc2c3c(ccc12)OCN(c1cccnc1)C3	-7.44%
Cc1cc(C)cc(OCC(=O)NCCCN2CCOCC2)c1	-1.33%
CC1CCCC(NC(=O)c2csc3c2CCCC3)C1C (stereo not shown)	-3.21%
Cc1cc(-c2cccs2)c2c(n1)sc1c(=O)[nH]c(=O)[nH]c12	1.86%
CCOC(=O)c1c(NC(=O)c2ccc(Cl)c([N+](=O)[O-])c2)sc2c1CCCC2	-0.239%
Cc1ccc2c(CNCCCc3ccccc3)c(C(=O)O)n(Cc3ccc(F)cc3)c2c1	-2.39%
c1ccc(-c2nnc(SCc3cccnc3)o2)cc1	-2.63%

Structure (SMILES)	% Inhibition @ 10 uM
Cn1/c(=N\c2ccccc2)sc2ccccc21	-0.116%
CC(Oc1ccccc1F)C(=O)NCc1ccc2c(c1)OCO2 (stereo not shown)	0.231%
Cc1ccc(Cn2ccc(NC(=O)c3cc4n(n3)C(C(F)(F)F)CC(c3ccco3)N4)n2)cc1 (stereo not shown)	4.08%
Nc1ncnc2[nH]c(SCc3ccc4nsnc4c3)nc12	8.97%
CCOC(=O)c1sc(-c2ccccc2)cc1NC(=O)c1cc(=O)c2ccccc2o1	4.67%
COc1ccc(OC)c(S(=O)(=O)N2CCN=C2c2ccccc2)c1	2.53%
O=C(CN1C(=O)c2ccccc2S1(=O)=O)Nc1cccc(Cl)c1	-8.92%
CCO/C(O)=C(\C#N)C(=N)C(F)(F)F	-3.78%
CC(C)(C)c1ccc(-c2ncccc2O)cc1	-0.128%
Cc1ccc(CNC(=O)Nc2cn(C)c(=O)c3ccccc23)cc1	3.96%
O=C(NCc1ccncc1)c1cc(Cl)ccc1Cl	-3.49%
c1cncc(CN2CCCCCC2)c1	-3.56%
CC(=O)c1c(S)nc(-c2ccccc2)nc1N1CCCC1	4.74%
COc1ccccc1C(=O)CC1(O)C(=O)N(Cc2ccc(Cl)cc2)c2ccccc21 (stereo not shown)	-13.8%
COc1ccccc1CNC(=O)c1cc2sccc2n1C	-6.68%
O=C(CCC1CCCCC1)N1CCN(CCN2C(=O)c3ccccc3C2=O)CC1	-4.42%
Cc1ccc(CCN2CC(C(=O)NC3CCCC3)CC2=O)cc1 (stereo not shown)	1.62%
CC1(C)Oc2ccc3ccc(=O)oc3c2C(/C=N/CCO)=C1O	3.73%
CC1(C)CC(CCNCc2ccc(O)cc2)(c2ccccc2)CCO1 (stereo not shown)	3.96%
O=C(O)/C=C/c1ccc(-c2ccc(Cl)c(Cl)c2)o1	-0.053%
CCOC(=O)N1CCN(C(=O)CN(c2ccccc2F)S(=O)(=O)c2ccccc2)CC1	5.07%
Cn1c(=O)c2c(nc(Sc3ncnn3CC(=O)N3CCOCC3)n2C)n(C)c1=O	-3.41%
Cn1c(=O)[nH]c(=O)c2c1nc(N1CCOCC1)n2CCCSc1ncccn1	2.41%
O=C(NCCc1ccccc1)C1CCN(c2nc3ccccc3n3cnnc23)CC1	5.9%
N#CC1=C(N)Oc2[nH]nc(-c3ccc(Cl)s3)c2C12C(=O)Nc1ccccc12 (stereo not shown)	0.658%

Reference: article PMC6919601, “Identification of Plasmodium dipeptidyl aminopeptidase allosteric inhibitors by high throughput screening” (PLoS ONE, 2019)
